Assay results as given in PubChem BioAssay AID1671188 (National Center for Advancing Translational Sciences (NCATS), 2021).
Values joined by “and” are separate entries in the source; they are usually repeats but may differ in a detail not shown here. Equal values may be shown once. The campaign covered roughly 100,000 compounds. About 250 (0.25%) were called active. The inconclusive results got no clear call from the source; some entries with a clear call stand among them for comparison. Calls follow the shape of the dose curve; as a rule, active = well fitted inhibition curve with a large enough effect; inconclusive = small, poorly fitted or top-dose-only effect; inactive = flat fitted curve, though single readings scatter. Potencies of inconclusive entries are doubtful fits and often do not repeat.

The molecules below were run against Alanine aminotransferase 2 (Homo sapiens) (UniProt Q8TD30) (assay: Primary qHTS assay for inhibitors of Glutamate pyruvate transaminase 2 (GPT2)). Settings: Recombinant GPT2, coupled pyruvate oxidase/HRP Amplex Red fluorescence; activity change, negative = inhibition: at 57.7 µM (top of the series) unless noted; series mostly up to 57.7 µM.
Chain of UniProt Q8TD30 (Q8TD30 whole entry, looked up): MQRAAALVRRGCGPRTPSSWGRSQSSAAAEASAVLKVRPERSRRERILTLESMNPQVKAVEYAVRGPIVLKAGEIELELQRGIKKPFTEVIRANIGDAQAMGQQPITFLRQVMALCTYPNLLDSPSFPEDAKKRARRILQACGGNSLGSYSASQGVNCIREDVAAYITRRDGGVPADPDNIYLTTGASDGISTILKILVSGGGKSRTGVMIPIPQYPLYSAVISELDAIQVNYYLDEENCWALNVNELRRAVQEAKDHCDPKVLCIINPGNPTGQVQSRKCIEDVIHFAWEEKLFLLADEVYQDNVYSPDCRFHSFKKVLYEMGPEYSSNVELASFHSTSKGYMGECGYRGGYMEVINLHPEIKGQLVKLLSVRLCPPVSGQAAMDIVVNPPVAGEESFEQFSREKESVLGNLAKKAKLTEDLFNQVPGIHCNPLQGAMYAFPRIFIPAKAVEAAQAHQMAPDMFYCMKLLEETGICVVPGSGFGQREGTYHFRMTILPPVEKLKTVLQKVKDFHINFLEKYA
Summary of the method: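 Recombinant GPT2 (10ng/uL) with 250uM a-KG and 2mM L-alanine, 30 min at room temperature, in HEPES pH 7.5 buffer. Pyruvate detected by pyruvate oxidase/HRP/Amplex Red fluorescence after 30 min in the dark; AOA (50uM) as positive control.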
% is scaled to controls: 0 for no effect and ±100 for the full control effect; potency is read from the fitted curve at half-maximal effect; tags tell the direction and shape of the fitted curve.
Also: nearly all actives have a fitted effect of over 60% in size.

SMILES	Potency	activity change, negative = inhibition
CCNC(=O)N(C1CC1)C1CCOC2(CCN(C(=O)CCCc3ccccc3)CC2)C1 (centres undefined)	inactive	–
COc1cccc(CC(=O)NC2CCN(c3cc(-c4ccc(F)cc4)[nH]n3)C2)c1 (centres undefined)	inconclusive: 28.2 µM [inhibitor, single point]	–
CCc1ncc2c(N3CC4CCC(C3)N4CC(F)(F)F)nc3ccccc3n12	inconclusive: 8.91 µM [inhibitor, single point]	–
O=C(CCc1ccccc1)N1CC2(C1)CN(c1ccccc1)C(=O)O2	inconclusive: 11.2 µM [inhibitor, single point]	–
Cc1cccc(CN2CCc3c(n(Cc4cccnc4)n(-c4ccccc4)c3=O)C2)n1	inactive	–
CCCN1C(=O)Cc2cc(C(=O)NC(C)c3ccc(OCC)cc3)ccc21 (centres undefined)	inconclusive: 2.82 µM [inhibitor, partial curve, poor fit]	–
N#C/C(=C\c1ccc(O)c(O)c1)C(=O)NCCCNC(=O)/C(C#N)=C/c1ccc(O)c(O)c1	inconclusive: 39.8 µM [inhibitor, single point]	–
CC(=O)N1C[C@@H]2CCCN3CCC[C@@H]([C@H]23)[C@H]1CCCC(=O)NCCC(C)C	inactive	–
CCOc1ccc(C(C)NC(=O)C2CCCN(c3cnc4nccnc4c3)C2)cc1 (centres undefined)	inactive	–
CN(Cc1cccc2ncccc12)C(=O)CN1CCOC1=O	inactive	–
Fc1ccc2nc([C@H]3CCN(C4CCC4)C3)[nH]c2c1	inconclusive: 14.1 µM [inhibitor, partial curve, poor fit]	–
COc1ccc(CC(=O)NC2CCN(c3cc(-c4ccc(F)cc4)[nH]n3)C2)cc1OC (centres undefined)	inconclusive: 11.2 µM [inhibitor, partial curve, poor fit]	–
O=C(c1ccc2c(c1)OCO2)N1CCCN(c2cc(-c3ccc(Cl)cc3)[nH]n2)CC1	inconclusive: 35.5 µM [inhibitor, single point]	–
C[C@@H](NC(=O)c1cnccn1)c1onc(-c2ccc(F)cc2)c1C(=O)O	inconclusive: 39.8 µM [inhibitor, single point]	–
CC(=O)Nc1ccc(S(=O)(=O)N2C[C@@H]3C[C@H](C2)c2c(-c4ccc(OC(F)(F)F)cc4)ccc(=O)n2C3)cc1	inconclusive: 31.6 µM [inhibitor, single point]	–
Cc1ccc(-c2cc(N3CCCN(C(=O)COc4ccccc4)CC3)n[nH]2)cc1C	inconclusive: 35.5 µM [inhibitor, single point]	–
C=CCNC(=O)C(NC(=O)c1ccc2c(c1)OCO2)C1CCN(C(=O)c2ccc(OC)cc2)CC1 (centres undefined)	inconclusive: 2.82 µM [inhibitor, partial curve, poor fit]	–
CCNC(=O)[C@@H]1C[C@@H](NC(=O)c2cn(C)nc2C)CN1Cc1ccccc1	inconclusive: 39.8 µM [inhibitor, single point]	–
O=C(c1cncc(Br)c1)N1CCC2(CC1)CC(O)CCO2 (centres undefined)	inactive	–
COc1ccc(C(=O)N2CCC3(CC2)NC(=O)N(c2ccccc2)N3)cc1F	inconclusive: 39.8 µM [inhibitor, single point]	–
Cc1ccc(CNC(=O)C2CCCCc3nnc(-c4ccccc4)n32)o1 (centres undefined)	inactive	–
O=C(c1nnc(CNC2CC2)n1-c1ccccc1)N1CCC[C@@H]1C(c1ccccc1)c1ccccc1	inconclusive: 8.91 µM [inhibitor, single point]	–

SMILES	Potency	activity change, negative = inhibition
O=c1n(CC2CC2)nc2n1CCN(S(=O)(=O)c1cccnc1)CC2	inconclusive: 39.8 µM [inhibitor, single point]	–
O=C(c1ccc2nnc(-c3ccc(Cl)cc3)n2c1)N1CCCC1	inconclusive: 1.12 µM [inhibitor, full curve, poor fit]	–
O=C(O)c1cccc(C2CCCN(C(=O)Cc3cc(F)c(F)c(F)c3)C2)c1 (centres undefined)	inconclusive: 6.31 µM [inhibitor, single point]	–
O=C(NC1CCCN(c2cc(-c3ccc(F)cc3)[nH]n2)C1)c1ccccc1Cl (centres undefined)	inactive	–
Cc1cc(C(=O)NCc2ccc(F)cc2)c2c(C3CCNCC3)noc2n1	inconclusive: 3.16 µM [inhibitor, partial curve, poor fit]	–
C/C(=C\C=C\C(C)C1CCC2(C)C3CCC4C(C)(C)C(=O)CCC45CC35CCC12C)C(=O)O (centres undefined)	inconclusive: 3.98 µM [inhibitor, full curve, poor fit]	–
Brc1c(NC2=NCCN2)ccc2nccnc12	inconclusive: 5.01 µM [inhibitor, full curve, poor fit] and inconclusive: 39.8 µM [inhibitor, single point]	–
Cc1c(F)cccc1NC(=O)C1CN(S(=O)(=O)C2CC2)CC12CCCCC2 (centres undefined)	inactive	–
N#Cc1cccnc1-c1ccc(C(=O)N2CCC(N[S+](=O)([O-])c3cccs3)CC2)cc1	inconclusive: 6.31 µM [inhibitor, single point]	–
CN(c1ccccc1)c1cc(=O)c2ccnc(NCCc3ccccn3)c2o1	inactive	–
CCc1cc(C(=O)N2CCC3(CC2)OCCCC3O)n(C)n1 (centres undefined)	inactive	–
CCOc1ccc(C2Cn3nnc(-c4nc(-c5ccccc5F)no4)c3CO2)cc1 (centres undefined)	inconclusive: 3.16 µM [inhibitor, partial curve, poor fit]	–
CNC(=O)[C@@H]1CN(C(=O)CCc2cc(OC)no2)C[C@H]1c1nc(C)no1	inactive	–
O=C(NCc1cccc(Cl)c1)c1cn2cc(-c3ccccc3)sc2n1	inconclusive: 7.08 µM [inhibitor, single point]	–
c1ccc(-c2noc(-c3nc(-c4ccccn4)no3)n2)cc1	inactive	–
C[C@@H](NC(=O)/C(C#N)=C/c1ccc(O)c(O)c1)c1ccccc1	inconclusive: 25.1 µM [inhibitor, single point]	–
c1ccc(-c2nnc3ccc(-c4ccoc4)nn23)nc1	inconclusive: 20 µM [inhibitor, partial curve, poor fit]	–
COCC(=O)N1CCC(C(=O)NCc2cc(-c3cccc(F)c3)no2)CC1	inconclusive: 1.41 µM [inhibitor, full curve, poor fit]	–
OC1(CN2CCCCC2)CCN(Cc2ccc(Cl)cc2)C1 (centres undefined)	–	inactive: -0.648% [at 11.5 µM]
O=C(NCc1ccncc1)c1cc(C2CC2)nc2onc(C3CCCN3)c12 (centres undefined)	inconclusive: 2.82 µM [inhibitor, partial curve, poor fit]	–
COC(=O)[C@@H]1Cc2c([nH]c3ccccc23)[C@H]2C[C@@H](NCCN3CCOCC3)C[C@@H](c3ccc(F)c(F)c3)N21	inconclusive: 39.8 µM [inhibitor, single point]	–
CC(=O)NC1CCN(C(=O)N2CC3CC(C2)[C@H]2CCCC(=O)N2C3)CC1 (some centres undefined)	inconclusive: 8.91 µM [inhibitor, single point]	–

SMILES	Potency	activity change, negative = inhibition
N#Cc1cccc(CN2CCC[C@H]2c2nc(-c3ccc(OC4CCCCC4)nc3)no2)c1	inconclusive: 12.6 µM [inhibitor, single point]	–
O=C1CCN(S(=O)(=O)c2ccccc2)CCCN(Cc2cccc(F)c2)CCN1	inconclusive: 31.6 µM [inhibitor, single point]	–
CC1Oc2ccc(NC(=O)c3ccc(F)cc3)cc2CN(Cc2ccccc2Cl)C1=O (centres undefined)	inconclusive: 0.794 µM [inhibitor, full curve, poor fit]	–
O=C1CO[C@H]2CN(Cc3cccnc3)C[C@H]2N1Cc1cccc(C(F)(F)F)c1	inactive	–
CCOCCOC1CCN(S(=O)(=O)c2c(C)noc2C)CC1	inactive	–
COCCN1C(=O)CCc2cc(NC(=O)c3ccc(Br)o3)ccc21	inconclusive: 39.8 µM [inhibitor, single point]	–
COc1ncccc1-c1cc2c(ccn2Cc2ccncc2)c(N2CCOCC2)n1	inconclusive: 50.1 µM [inhibitor, single point]	–
CCCNC(=O)Cc1csc2nc(C)c(-c3cc(C)n(-c4ccc(Cl)c(Cl)c4)n3)c(=O)n12	inactive	–
CNC(=O)[C@@H]1C[C@@H](O)CN1C1CCN(C(=O)c2ccccc2OC)CC1	inconclusive: 5.01 µM [inhibitor, single point]	–
Cc1cnc(CC2CCN(S(=O)(=O)c3cn(C)cn3)C2)n1Cc1ccccc1 (centres undefined)	inconclusive: 3.16 µM [inhibitor, single point]	–
O=C1c2cc(N3CCOCC3)nc(-c3ccc(CO)cc3)c2CN1Cc1ccccc1	inactive	–
C#CCNC(=O)C1CCN(c2nccc(Nc3ccc(OC)cc3)n2)CC1	inactive	–
CCCCOc1cc(C(=O)NCCN(CC)CC)c2ccccc2n1	inconclusive: 39.8 µM [inhibitor, single point]	–
Cc1ccc(O)cc1Nc1ccnc(Nc2cccc(C(N)=O)c2)n1	inactive	–
Cc1cccc(C#Cc2cc(F)cc(C#N)c2)n1	inconclusive: 35.5 µM [inhibitor, single point]	–
O=C(c1ccccc1)N1CCCC(C(=O)N2CCC(c3nc4ncccc4[nH]3)CC2)C1 (centres undefined)	inconclusive: 39.8 µM [inhibitor, single point]	–
Cc1coc2c1C(=O)C(=O)c1c-2ccc2c(C)cccc12	inconclusive: 30.6 µM [inhibitor, single point] and active: 2.24 µM	–
C=CCn1cc2c3c(cccc31)[C@H](CC(C)C)N[C@H](C(=O)N1CCOCC1)C2	inconclusive: 56.2 µM [inhibitor, single point]	–
C1=C(c2cc(-c3cccc(N4CCOCC4)c3)cn3cncc23)CCOC1	inconclusive: 12.6 µM [inhibitor, single point]	–
COc1ccccc1-c1cn2c(n1)CO[C@@H](CNCc1cccnc1)C2	inconclusive: 8.91 µM [inhibitor, partial curve, poor fit]	–
